{"source": "PubChem BioAssay AID488969", "about": "(Vanderbilt High Throughput Screening Facility, 2010)", "note": "In all, about 110,000 compounds were measured (“z-score”: median about -0.1, highest 2% from about 2 on). This is one part of the list.", "data": [{"biological_target": "Metabotropic glutamate receptor 8 (Rattus norvegicus) (UniProt P70579)", "sequence (P70579 whole entry, looked up)": "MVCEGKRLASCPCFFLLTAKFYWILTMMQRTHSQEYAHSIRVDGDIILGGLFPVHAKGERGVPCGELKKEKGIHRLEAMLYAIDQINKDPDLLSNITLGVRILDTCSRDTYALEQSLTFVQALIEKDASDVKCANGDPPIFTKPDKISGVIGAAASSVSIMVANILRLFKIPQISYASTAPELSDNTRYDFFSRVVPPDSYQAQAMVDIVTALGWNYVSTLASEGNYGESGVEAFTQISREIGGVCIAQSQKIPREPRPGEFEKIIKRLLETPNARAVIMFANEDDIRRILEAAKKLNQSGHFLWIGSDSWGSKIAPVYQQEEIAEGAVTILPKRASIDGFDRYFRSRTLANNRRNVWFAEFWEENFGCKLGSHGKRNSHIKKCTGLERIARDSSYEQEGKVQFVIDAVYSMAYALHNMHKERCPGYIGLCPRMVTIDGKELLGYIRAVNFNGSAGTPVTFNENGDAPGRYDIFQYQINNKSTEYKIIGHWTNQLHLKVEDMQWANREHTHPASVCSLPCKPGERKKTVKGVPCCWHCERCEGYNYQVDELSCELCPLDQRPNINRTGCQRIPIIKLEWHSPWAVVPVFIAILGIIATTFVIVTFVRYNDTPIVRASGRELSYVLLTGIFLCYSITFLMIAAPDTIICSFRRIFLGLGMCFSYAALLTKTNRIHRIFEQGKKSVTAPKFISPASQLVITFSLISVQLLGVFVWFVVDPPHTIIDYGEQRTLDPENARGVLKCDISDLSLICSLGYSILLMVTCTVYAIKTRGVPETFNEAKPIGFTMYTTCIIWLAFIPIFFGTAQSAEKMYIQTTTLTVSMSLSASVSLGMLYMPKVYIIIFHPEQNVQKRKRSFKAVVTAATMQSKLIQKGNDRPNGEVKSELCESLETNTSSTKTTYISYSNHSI", "experiment": "rat mGluR8 modulators via GIRK flux, primary screen, cell-based, thallium flux, HTS (AID 488969)", "details": "HEK293 rat mGluR8, GIRK (G protein-gated inwardly rectifying potassium channel) thallium flux, FluoZin2; at 10 µM; stronger effect = higher value; submaximal glutamate (EC20) added with thallium", "values": [{"smiles": "O=C(Nc1ccc(N2CCN(C(=O)c3ccc(Cl)cc3)CC2)cc1)c1cc2ccccc2o1", "z-score": -0.0928}, {"smiles": "CN1C(=S)SC(/[N+]([O-])=C\\c2ccco2)C1(C)C", "note": "(centres undefined)", "z-score": 0.403}, {"smiles": "Cc1ccccc1NC(=S)NN1CCN(C)CC1", "z-score": 0.228}, {"smiles": "O=C(CSc1nnc(-c2ccccc2)o1)Oc1ccc(Br)cc1", "z-score": -0.623}, {"smiles": "CCOC(=O)c1cnc2c(C)cccc2c1Nc1ccc(N2CCOCC2)cc1", "z-score": -0.568}, {"smiles": "Cc1ccc(C(=O)N2CCCC(c3nc4c(nnn4Cc4ccccc4)c(=O)[nH]3)C2)cc1", "note": "(centres undefined)", "z-score": -0.0272}, {"smiles": "O=C(Nc1ccccc1)Nc1nnc(-c2ccccc2)o1", "z-score": -0.193}, {"smiles": "O=C(CSc1cn(CCNC(=O)c2cccs2)c2ccccc12)NC1CCCC1", "z-score": -0.245}, {"smiles": "CN(CCCNC(=O)c1cn(C)c2ccc(S(=O)(=O)N(C)C)cc2c1=O)c1ccccc1", "z-score": -0.947}, {"smiles": "CCOc1ccc(-n2c(Cc3cc(=O)[nH]c(=O)[nH]3)nnc2SCC(=O)NC2CCCC2)cc1", "z-score": 0.0889}, {"smiles": "CCN(Cc1ccccc1)c1ccc(N=Nc2nn(C)c(C)c2[N+](=O)[O-])cc1", "z-score": -0.00804}, {"smiles": "CC1(C)CC(=O)c2cc(OCC(=O)NCCCN3CCN(c4ccccc4F)CC3)ccc2O1", "z-score": -0.214}, {"smiles": "CC(C)CN(C(=O)CN1CCN(S(=O)(=O)c2ccc3ccccc3c2)CC1)c1c(N)n(CC(C)C)c(=O)[nH]c1=O", "z-score": -0.618}, {"smiles": "COC(=O)c1ccccc1Nc1ccccc1", "z-score": -0.166}, {"smiles": "COc1ccc(NC(=O)C2(c3ccc(NC(=O)c4ccc(OC)cc4)cc3)CCCC2)cc1", "z-score": -0.668}, {"smiles": "N#C/C(=C\\c1ccc(-c2ccc([N+](=O)[O-])cc2Br)o1)C(=O)N1CCN(c2ccccc2)CC1", "z-score": -0.281}, {"smiles": "CCn1nnc(-c2ccccc2NC(=O)c2cc(OC)cc(OC)c2)n1", "z-score": -0.139}, {"smiles": "Oc1ccc(N=Nc2n[nH]c(-c3ccccc3)n2)cc1", "z-score": -0.716}, {"smiles": "Cc1cccc2c(Cl)cc(=O)[nH]c12", "z-score": -0.111}, {"smiles": "c1ccc(-c2nnnc3ccccc23)cc1", "z-score": -0.0458}, {"smiles": "O=C(c1ccccc1)N1CCN=C1c1ccccc1", "z-score": -0.0705}, {"smiles": "Cc1ccc(NC(=O)CN(c2ccccc2F)S(C)(=O)=O)cc1", "z-score": -0.00294}, {"smiles": "Cc1cccc(CCNC(=O)C2CCC(CNc3c(N4CCCC4)c(=O)c3=O)CC2)c1", "note": "(centres undefined)", "z-score": -0.262}, {"smiles": "CCN1C(=O)CC(N2CCN(c3ccc(OC)cc3)CC2)C1=O", "note": "(centres undefined)", "z-score": -0.889}, {"smiles": "CCOC(=O)CSc1nnc(Cn2nnc(-c3ccccc3)n2)n1CC", "z-score": -0.507}, {"smiles": "COc1cccc(-n2nnnc2SCC(=O)Nc2ccc3c(c2)OCCO3)c1", "z-score": -0.0922}, {"smiles": "COc1cccc(Nc2ncnc3nc[nH]c23)c1", "z-score": -0.409}, {"smiles": "COc1ccc2ccccc2c1/C=N/NC(=S)Nc1cc(S(=O)(=O)N2CCOCC2)ccc1N1CCOCC1", "z-score": -0.538}, {"smiles": "COc1ccc(C(=O)CC(Nc2ccc([N+](=O)[O-])cc2)c2ccc(Cl)cc2)cc1", "note": "(centres undefined)", "z-score": -0.0244}, {"smiles": "CC(SCc1ccccc1)C(=O)NN=C1CCN(C)CC1", "note": "(centres undefined)", "z-score": -0.315}, {"smiles": "COC(=O)c1c(NC(=S)Nc2ccccc2Cl)sc(C)c1C", "z-score": 0.827}, {"smiles": "O=C(COc1cccc(Cl)c1)Nc1nc(-c2ccc(S(=O)(=O)N3CCOCC3)cc2)cs1", "z-score": -0.0049}, {"smiles": "O=C1Nc2ncccc2OC1CCO", "note": "(centres undefined)", "z-score": 0.0395}, {"smiles": "Nc1c(C(=O)c2ccccc2)oc2ccccc12", "z-score": -0.433}, {"smiles": "O=c1c2ccccc2c(-c2ccccc2)nn1Cc1ccccc1", "z-score": -1.25}, {"smiles": "Cc1cc(C(C)(C)C)c(O)c(C)c1CC1=NCCN1", "z-score": 0.56}, {"smiles": "O=C(NC(=S)NCc1cccnc1)c1ccccc1[N+](=O)[O-]", "z-score": -0.0397}, {"smiles": "COCc1cc(C)nc2sc3c(=O)n(-c4cccc5ccccc45)nnc3c12", "z-score": 0.206}, {"smiles": "CCOC(=O)N1CCN(S(=O)(=O)c2cccs2)CC1", "z-score": 0.106}, {"smiles": "CC1C=CC(C)C(C(=O)O)C1C(=O)O", "note": "(centres undefined)", "z-score": 0.461}, {"smiles": "Cc1cc(C)n(C(=O)c2ccc(C)c(S(=O)(=O)N3CCCC3)c2)n1", "z-score": -0.143}, {"smiles": "Cc1cc(C)n(C(=O)c2ccccc2[N+](=O)[O-])n1", "z-score": -0.188}, {"smiles": "COC(=O)c1sccc1NC(=O)CSc1nnnn1-c1ccccc1F", "z-score": -0.634}, {"smiles": "CCOc1ccc(N2C(=O)C3CCCN3C2=O)cc1", "note": "(centres undefined)", "z-score": 0.418}, {"smiles": "Cc1ccc(SCc2cc(=O)n3[nH]c(C)nc3n2)cc1", "z-score": -0.153}, {"smiles": "CCOC(=O)C1CCN(c2c(NCc3ccc(C(=O)NCCC(C)C)cc3)c(=O)c2=O)CC1", "z-score": -0.0475}, {"smiles": "Cc1ccc(Cn2c(CN3CCOCC3)nc3c2c(=O)[nH]c(=O)n3C)cc1", "z-score": -0.0778}, {"smiles": "Cc1ccc(S(=O)(=O)CCc2nnc(NC(=O)COc3cccc(C)c3)s2)cc1", "z-score": -0.284}, {"smiles": "CCOc1ccc(OCC)c(NC(=O)C2CCN(S(=O)(=O)c3c(C)noc3C)CC2)c1", "z-score": -0.391}, {"smiles": "O=C(Nc1ccccc1F)c1ccc(CSc2ccccc2)o1", "z-score": -0.43}, {"smiles": "O=C(NCS(=O)(=O)c1ccccc1)c1ccccc1", "z-score": 0.54}, {"smiles": "COC(=O)C1=C(C)N(Cc2ccc(OC)c(OC)c2)C(=O)C1", "z-score": -0.311}, {"smiles": "Cc1cccc(-n2ncc3c(NCc4cccs4)ncnc32)c1", "z-score": -0.705}, {"smiles": "Cc1cc2nc(/N=C(\\N)NC(=O)N3c4ccccc4Sc4ccccc43)nc(C)c2cc1C", "z-score": -0.275}]}]}
